The whole screen tested about 310,000 compounds, of which about 14,000 (4.5%) showed an effect of 50% or more. Effects have a minus sign here. The list shows a part of the results.
What follows are molecules tested against human ether-à-go-go-related gene (hERG) potassium channel (human, UniProt Q12809) (assay: primary screen, population patch clamp on CHO cells stably expressing hERG).
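Also: peak tail current of the secondary pulse compared with the same well before compound.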

Sequence of human ether-à-go-go-related gene (hERG) potassium channel (Q12809 whole entry, looked up): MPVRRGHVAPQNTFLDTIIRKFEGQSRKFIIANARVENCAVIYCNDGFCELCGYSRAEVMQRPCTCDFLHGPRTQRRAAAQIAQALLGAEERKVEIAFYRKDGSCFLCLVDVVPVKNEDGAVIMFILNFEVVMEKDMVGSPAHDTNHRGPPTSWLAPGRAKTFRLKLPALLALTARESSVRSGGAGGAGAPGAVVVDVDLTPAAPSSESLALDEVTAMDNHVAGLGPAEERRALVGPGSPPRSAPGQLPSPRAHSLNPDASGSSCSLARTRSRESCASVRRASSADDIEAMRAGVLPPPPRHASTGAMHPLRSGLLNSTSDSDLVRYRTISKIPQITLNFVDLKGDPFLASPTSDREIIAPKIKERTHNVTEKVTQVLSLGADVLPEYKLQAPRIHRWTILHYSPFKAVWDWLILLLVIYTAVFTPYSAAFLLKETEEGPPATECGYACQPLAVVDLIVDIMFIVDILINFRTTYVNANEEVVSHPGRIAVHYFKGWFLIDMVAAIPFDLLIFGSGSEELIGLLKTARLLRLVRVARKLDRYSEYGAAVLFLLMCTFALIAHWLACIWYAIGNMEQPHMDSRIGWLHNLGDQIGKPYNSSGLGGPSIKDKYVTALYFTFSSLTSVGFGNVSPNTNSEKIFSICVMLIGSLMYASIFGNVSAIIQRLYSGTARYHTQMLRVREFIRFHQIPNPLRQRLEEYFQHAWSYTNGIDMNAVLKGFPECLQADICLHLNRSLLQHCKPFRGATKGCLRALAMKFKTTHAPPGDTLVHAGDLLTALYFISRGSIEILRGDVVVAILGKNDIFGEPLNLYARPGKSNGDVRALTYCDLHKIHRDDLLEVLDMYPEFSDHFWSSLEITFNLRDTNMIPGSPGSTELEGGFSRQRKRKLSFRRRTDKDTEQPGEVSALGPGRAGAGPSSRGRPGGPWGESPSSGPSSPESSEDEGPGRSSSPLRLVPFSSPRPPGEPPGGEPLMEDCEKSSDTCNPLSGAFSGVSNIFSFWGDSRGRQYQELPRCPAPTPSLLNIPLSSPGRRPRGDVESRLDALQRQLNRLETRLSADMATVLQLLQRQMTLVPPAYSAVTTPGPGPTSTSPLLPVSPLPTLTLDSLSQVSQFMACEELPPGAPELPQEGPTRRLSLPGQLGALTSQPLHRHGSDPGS

SMILES | hERG current change (%, negative = inhibition) at 10uM
Cc1ccc(N2N=C(C(=O)O)CCC2=O)cc1Cl | -45.2%
CCOC(=O)[C@H]1[C@H]2COc3ccc(OC)cc3[C@@H]2N2C(=O)c3cc(C)ccc3NC(=O)[C@@]12C | -27.5%
CC(=O)c1cccc(N(C(=O)CNC(=O)c2ccco2)C(C(=O)NC2CCCC2)c2ccc(C)o2)c1 (stereo not drawn) | 6.93%
COc1ccc2[nH]c(C)c(CCNCc3cc(OC)c(OC)c(OC)c3)c2c1 | 4.3%
O=C(COC(=O)c1ccc2c(c1)OCCO2)NCc1ccccc1 | 18.4%
CN(C)S(=O)(=O)c1cccc(C(=O)OCC(=O)N2c3ccccc3NC(=O)C2(C)C)c1 | 4.95%
CC(C)(C)NC(=O)COC(=O)c1ccccc1Oc1ccccc1 | -1.2%
Cc1ccc(S(=O)(=O)N2CCOCC2)cc1NC(=O)COC(=O)c1n[nH]c(=O)c2ccccc12 | 4.51%
CCCc1cc(=O)oc2cc(OCc3ccc(C(=O)O)cc3)ccc12 | 20.8%
CCOc1ccc(-c2c(=O)n(OCc3nc4ccccc4[nH]3)c3ccccc3[n+]2[O-])cc1 | -9.25%
O=C(N/N=C1\CCCc2ccccc21)c1ccccc1[N+](=O)[O-] | 1.85%
COc1ccc(OC)c2c1sc(=NC(=O)C1CCCCC1)n2C | -7.43%
O=C1c2cc3ccccc3c(-c3ccccc3)c2C(=O)N1c1ccccn1 | 2.17%
O=C(NCCc1ccc(Cl)cc1)C1CCCN1C(=O)Nc1ccccc1 (stereo not drawn) | -11.5%
Cn1cnnc1SCC(=O)Nc1cc(C(F)(F)F)ccc1N1CCOCC1 | -15.6%
Cc1nn(Cc2ccc(Cl)cc2)c(C)c1NC(=O)c1cc(-c2ccco2)on1 | -5.66%
Cc1ccc(N(Cc2ccco2)C(=O)c2cccc(S(=O)(=O)N(C)C)c2)cc1 | -21.5%
O=C(Cn1c(=O)oc2cc(S(=O)(=O)N3CCOCC3)ccc21)N1CCc2ccccc2C1 | 4.76%
O=C(O)c1ccc2c(c1)C(=O)N(c1ccc([N+](=O)[O-])cn1)C2=O | 19.5%
COc1ccccc1CNC(=O)C(NC(=O)c1ccccc1C)C(C)C (stereo not drawn) | 10.2%
CC(=O)NCC(=O)NC(C(=O)Nc1ccc2c(c1)OCCO2)c1ccc(C)cc1 (stereo not drawn) | 16.8%

SMILES | hERG current change (%, negative = inhibition) at 10uM
COc1ccc(N2C(=O)CC(c3ccc([N+](=O)[O-])cc3)C2=O)cc1 (stereo not drawn) | -0.178%
COc1cc(C(=O)OC(C)C(=O)NC(=O)NC2CCCCC2)ccc1OC(F)F (stereo not drawn) | -51.2%
COc1ccc2nc3oc(C(=O)N4CCN(c5cccc(Cl)c5)CC4)cc3cc2c1 | -5.8%
COCCn1c(CN(C)Cc2ccccc2)nc2c1c(=O)n(C)c(=O)n2C | -6.15%
O=C(Nc1ccc(F)cc1)c1ccc(CN2CCc3ccccc3C2)cc1 | 7.03%
COc1cc(OC)c(OC)cc1CN1CCN(c2ccccc2OC)CC1 | -31.1%
Nc1nnc(SCC(=O)Nc2cccc(S(=O)(=O)N3CCOCC3)c2)s1 | 24.1%
O=S(=O)(c1ccccc1)N1CCCC1c1cccs1 (stereo not drawn) | -2.26%
CCn1nc(NC(=O)Cc2ccc(OC)cc2)c2cc3cc(C)ccc3nc21 | 4.97%
Cc1cc(=O)oc2cc(OCC(=O)NCCCN3CCCC3=O)ccc12 | 29.5%
COCCC(=O)N1CCC(Oc2ccc(C(=O)NCc3cc(C)n(C)n3)cc2)CC1 | 17.7%
COc1ccc(CCN2CC(C(=O)OCC(=O)N(C)Cc3ccccc3)CC2=O)cc1OC (stereo not drawn) | -6.91%
Cc1nc(-c2ccc(C(=O)N3CCCC3)cc2)cs1 | 4.74%
COc1ccc(NC(=O)CN(Cc2ccccc2)Cc2ccccc2)cc1S(N)(=O)=O | -36.7%
COc1ccc(C)cc1-n1nnnc1SCC1CCCCO1 (stereo not drawn) | -14.8%
O=C(CSC1=NC(=O)C(Cc2ccccc2)C(=O)N1)NC1CCCCC1 (stereo not drawn) | 12.1%
COc1ccc(C(=O)c2c[nH]c(C(=O)NCc3cccnc3)c2)cc1 | -12.7%
Cn1cccc1-c1nc2ccc(NC(=O)c3ccco3)cc2[nH]1 | -21.2%
Cc1sc2ncn(CC(=O)N(CC(=O)NC3CCCC3)Cc3cccs3)c(=O)c2c1C | -31.2%
COc1cccc(C2c3c(-c4ccccc4O)n[nH]c3C(=O)N2Cc2ccco2)c1 (stereo not drawn) | -0.711%
COc1ccc(-c2csc3ncnc(N4CCN(c5ccccc5Cl)CC4)c23)cc1 | 17.1%

SMILES | hERG current change (%, negative = inhibition) at 10uM
COc1ccc(Cl)cc1C(=O)NC(=S)Nc1nc(C)cc(C)n1 | 3.65%
CCOC(=O)c1[nH]c2ccc(OC)cc2c1NC(=O)CN1CCC2(CC1)OCCO2 | 12.3%
NC(=O)NC(=O)COC(=O)c1cccc(S(=O)(=O)N2CCCCCC2)c1 | -21.4%
O=C(c1ccco1)N1CCN(C(=O)c2ccccc2NS(=O)(=O)c2ccc(F)cc2)CC1 | -12.2%
O=C(COC(=O)C1CCN(S(=O)(=O)c2cccc3cccnc23)CC1)c1ccc([N+](=O)[O-])cc1 | 13.1%
NC(=O)CCCSc1nc2ccccc2[nH]1 | 13.3%
COc1ccc(OCC(O)CNC(C)c2ccccc2)cc1.Cl (stereo not drawn) | 5.12%
NS(=O)(=O)c1ccc(NNC(=O)c2ccccc2)cc1 | 18.7%
COc1ccc(C(=O)N/N=C(\C)CC(=O)Nc2ccc3ccccc3c2)c(OC)c1 | 19.6%
COc1ccc(CC(=O)OCn2nnc3ccccc3c2=O)cc1OC | 17.5%
Cc1cccc(-c2nc(CS(=O)CC(=O)NCc3ccco3)c(C)o2)c1 (stereo not drawn) | -13.1%
O=C(NCC(=O)N(CC1CCCO1)C(C(=O)NC1CCCCC1)c1ccccc1)c1ccco1 (stereo not drawn) | -0.18%
CC(C)C(=O)Nc1ncc(Cc2ccccc2Cl)s1 | 11.7%
CCN(CC)CCNC(=O)CCc1n[nH]c(=O)c2ccccc12 | -9.65%
c1ccc(Cc2nn3c(COc4ccccc4)nnc3s2)cc1 | 6.61%
Cn1c(=O)c(-c2cc(Br)ccc2N)nc2ccccc21 | -29.3%
COc1ccc(CCC(=O)Nc2cccc(S(=O)(=O)N3CCCCCC3)c2)cc1OC | -30.8%
NC(=O)c1ccc(NC(=O)COC(=O)CCCN2C(=O)c3cccc4cccc(c34)C2=O)cc1 | 5.32%
Cc1ccc(Nc2ncc3c(n2)CC(C)(C)CC3=O)cc1 | -10%
Cn1c(NC(=O)c2ccco2)c(-c2ccccc2Cl)c(=O)c2ccccc21 | -3.6%
O=C(c1ccco1)N1N=C(c2ccc(Cl)cc2)CC1(O)C(F)(F)F (stereo not drawn) | 8.44%

SMILES | hERG current change (%, negative = inhibition) at 10uM
CC(=O)Nc1ccc(S(=O)(=O)NCCC(=O)Nc2ccc(C)c(F)c2)cc1 | -0.433%
CCOC(=O)C1=C(C(F)(F)F)Nc2ncnn2C1c1cc(OC)ccc1OC (stereo not drawn) | 11.5%
CN(c1c(C#N)c(C(F)(F)F)nn1C)N(S(C)(=O)=O)S(C)(=O)=O | 14.3%
Cc1nn(Cc2ccc(C(=O)NC(C)(C)C)o2)c(C)c1Br | 1.8%
CC1(C)C(c2ccccc2)=NC(c2ccc(Br)cc2)N1O (stereo not drawn) | 26.1%
COCc1cccc(C2=CC(=O)C[C@H](c3ccc(F)cc3)C2)c1 | -20.5%
CCC(C)NC(=O)C1CCC(CNS(=O)(=O)c2ccc3c(c2)CC(C)N3C(C)=O)CC1 (stereo not drawn) | 3.26%
O=C(Nc1ccccc1)c1ccc(N2CCN(c3ccccn3)CC2)c(S(=O)(=O)N2CCOCC2)c1 | -11.3%
Cc1cccc(C(=O)NCCNC(=O)c2cccc(C)c2)c1 | -13%
O=C1Oc2ccccc2C(=O)/C1=C/N1CCN(c2ccccc2F)CC1 | -0.353%
CCCCN(C)C(=O)Cn1nc(-c2ccc(Cl)cc2)ccc1=O | -36.7%
COc1ccc(NC2CCCN(C(=O)c3ccc4[nH]c(C)c(C)c4c3)C2)cc1OC (stereo not drawn) | 8.71%
CCC(=O)N1CCC2(CC1)Oc1ccc(F)cc1C(=O)C21CC(c2cccnc2)=NO1 (stereo not drawn) | -7.68%
COc1ccc(C(=O)Nc2ccccc2C(=O)N2CCCCCC2)cc1 | 9.26%
Cc1nn(C)c(C)c1CCC(=O)N1CCCC(C(=O)c2cccc(OC(C)C)c2)C1 (stereo not drawn) | -9.07%
COC(=O)c1cc(C(=O)c2cc(F)ccc2O)cn2c(=O)c3c(C)c(C)sc3nc12 | 10.9%
Cc1cc(NC(=O)c2ccc(-c3ccccc3F)o2)no1 | 3.01%
C=CCN1C(=O)c2ccccc2NC1c1cc(Br)cs1 (stereo not drawn) | -11.3%
O=C(OCN1C(=O)c2ccccc2C1=O)c1ccco1 | 6.83%
O=C(COC(=O)c1ccc([N+](=O)[O-])s1)Nc1ccccc1 | -26%
C=CCc1cc(OC)ccc1OCC(O)CN1CCN(c2ccc(OC)cc2)CC1 (stereo not drawn) | -59.7%
